Data published in ChEMBL document CHEMBL1961873, “Compounds: GSK PKIS; Assays: Nanosyn kinase panel” (2012).
For some of these results: What follows is the remainder of the data, with few or none of the strong results. Only a part is listed here, and it is no random draw.

Columns and labels:
[1] = system: Epidermal growth factor receptor (Homo sapiens), P00533 [T790M]; details: at 1 µM
[2] = system: Epidermal growth factor receptor (Homo sapiens), P00533 [L858R,T790M]; details: at 0.1 µM
[3] = system: Epidermal growth factor receptor (Homo sapiens), P00533 [L858R,T790M]; details: at 1 µM
[4] = molecular target: Ephrin type-A receptor 2 (Homo sapiens) (UniProt P29317); details: at 0.1 µM
[5] = molecular target: Ephrin type-A receptor 2 (Homo sapiens) (UniProt P29317); details: at 1 µM
[6] = molecular target: T1, Ephrin type-A receptor 3 (Homo sapiens) (UniProt P29320); details: at 0.1 µM
T1 sequence (whole entry): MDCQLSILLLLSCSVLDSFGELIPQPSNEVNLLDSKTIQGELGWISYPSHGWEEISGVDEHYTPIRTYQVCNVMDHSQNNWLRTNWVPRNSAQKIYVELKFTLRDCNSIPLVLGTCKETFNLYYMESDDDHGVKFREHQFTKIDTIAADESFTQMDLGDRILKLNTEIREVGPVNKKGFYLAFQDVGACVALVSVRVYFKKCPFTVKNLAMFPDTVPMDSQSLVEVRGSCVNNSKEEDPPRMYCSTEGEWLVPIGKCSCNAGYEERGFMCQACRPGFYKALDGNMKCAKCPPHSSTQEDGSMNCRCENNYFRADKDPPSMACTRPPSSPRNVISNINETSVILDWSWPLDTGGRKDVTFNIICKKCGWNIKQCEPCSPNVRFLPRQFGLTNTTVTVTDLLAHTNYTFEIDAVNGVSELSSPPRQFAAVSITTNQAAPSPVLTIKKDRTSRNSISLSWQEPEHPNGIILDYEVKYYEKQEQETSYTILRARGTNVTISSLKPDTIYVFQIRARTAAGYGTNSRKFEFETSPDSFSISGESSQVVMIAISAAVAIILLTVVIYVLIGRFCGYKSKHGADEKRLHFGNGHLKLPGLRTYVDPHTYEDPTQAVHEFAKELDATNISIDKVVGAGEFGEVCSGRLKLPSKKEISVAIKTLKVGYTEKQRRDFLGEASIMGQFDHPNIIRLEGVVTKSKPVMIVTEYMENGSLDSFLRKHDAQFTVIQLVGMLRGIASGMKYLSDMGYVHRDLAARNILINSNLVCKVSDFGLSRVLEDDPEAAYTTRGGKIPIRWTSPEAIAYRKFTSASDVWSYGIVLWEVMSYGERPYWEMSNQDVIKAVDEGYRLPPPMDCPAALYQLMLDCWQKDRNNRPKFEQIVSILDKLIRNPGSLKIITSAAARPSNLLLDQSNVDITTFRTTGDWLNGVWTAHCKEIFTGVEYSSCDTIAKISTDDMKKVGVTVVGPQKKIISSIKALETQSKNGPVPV

[7] = molecular target: T1, Ephrin type-A receptor 3 (Homo sapiens); details: at 1 µM
[8] = molecular target: Ephrin type-A receptor 4 (Homo sapiens) (UniProt P54764); details: at 0.1 µM
[9] = molecular target: Ephrin type-A receptor 4 (Homo sapiens) (UniProt P54764); details: at 1 µM
[10] = molecular target: T2, Ephrin type-B receptor 2 (Homo sapiens) (UniProt P29323); details: at 0.1 µM
T2 sequence (whole entry): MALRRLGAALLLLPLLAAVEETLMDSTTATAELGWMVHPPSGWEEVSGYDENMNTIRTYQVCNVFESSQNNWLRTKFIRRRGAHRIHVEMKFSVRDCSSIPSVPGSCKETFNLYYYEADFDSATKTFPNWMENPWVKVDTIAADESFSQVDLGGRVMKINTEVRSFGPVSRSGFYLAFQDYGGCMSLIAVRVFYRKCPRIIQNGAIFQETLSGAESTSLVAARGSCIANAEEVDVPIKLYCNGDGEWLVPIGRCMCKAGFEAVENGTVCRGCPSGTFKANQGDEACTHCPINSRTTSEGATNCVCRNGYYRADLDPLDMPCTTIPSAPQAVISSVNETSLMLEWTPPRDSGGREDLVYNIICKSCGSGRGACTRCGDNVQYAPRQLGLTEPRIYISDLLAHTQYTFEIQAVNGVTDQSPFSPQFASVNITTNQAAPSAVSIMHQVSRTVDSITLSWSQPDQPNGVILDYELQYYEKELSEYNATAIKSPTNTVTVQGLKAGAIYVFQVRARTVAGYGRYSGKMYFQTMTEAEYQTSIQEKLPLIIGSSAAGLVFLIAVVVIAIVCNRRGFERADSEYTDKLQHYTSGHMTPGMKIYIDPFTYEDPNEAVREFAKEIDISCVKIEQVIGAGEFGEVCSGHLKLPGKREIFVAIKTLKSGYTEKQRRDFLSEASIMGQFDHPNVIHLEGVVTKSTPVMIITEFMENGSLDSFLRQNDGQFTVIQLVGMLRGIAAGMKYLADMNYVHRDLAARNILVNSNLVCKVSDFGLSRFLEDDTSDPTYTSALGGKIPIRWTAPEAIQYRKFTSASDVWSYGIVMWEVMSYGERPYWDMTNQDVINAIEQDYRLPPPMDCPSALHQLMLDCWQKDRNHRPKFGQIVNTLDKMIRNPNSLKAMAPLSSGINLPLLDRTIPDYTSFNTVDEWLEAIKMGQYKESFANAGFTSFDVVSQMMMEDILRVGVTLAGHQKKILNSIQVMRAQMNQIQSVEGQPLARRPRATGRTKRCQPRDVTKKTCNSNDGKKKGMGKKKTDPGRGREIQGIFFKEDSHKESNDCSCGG

[11] = molecular target: T2, Ephrin type-B receptor 2 (Homo sapiens); details: at 1 µM
[12] = molecular target: T3, Ephrin type-B receptor 3 (Homo sapiens) (UniProt P54753); details: at 0.1 µM
T3 sequence (whole entry): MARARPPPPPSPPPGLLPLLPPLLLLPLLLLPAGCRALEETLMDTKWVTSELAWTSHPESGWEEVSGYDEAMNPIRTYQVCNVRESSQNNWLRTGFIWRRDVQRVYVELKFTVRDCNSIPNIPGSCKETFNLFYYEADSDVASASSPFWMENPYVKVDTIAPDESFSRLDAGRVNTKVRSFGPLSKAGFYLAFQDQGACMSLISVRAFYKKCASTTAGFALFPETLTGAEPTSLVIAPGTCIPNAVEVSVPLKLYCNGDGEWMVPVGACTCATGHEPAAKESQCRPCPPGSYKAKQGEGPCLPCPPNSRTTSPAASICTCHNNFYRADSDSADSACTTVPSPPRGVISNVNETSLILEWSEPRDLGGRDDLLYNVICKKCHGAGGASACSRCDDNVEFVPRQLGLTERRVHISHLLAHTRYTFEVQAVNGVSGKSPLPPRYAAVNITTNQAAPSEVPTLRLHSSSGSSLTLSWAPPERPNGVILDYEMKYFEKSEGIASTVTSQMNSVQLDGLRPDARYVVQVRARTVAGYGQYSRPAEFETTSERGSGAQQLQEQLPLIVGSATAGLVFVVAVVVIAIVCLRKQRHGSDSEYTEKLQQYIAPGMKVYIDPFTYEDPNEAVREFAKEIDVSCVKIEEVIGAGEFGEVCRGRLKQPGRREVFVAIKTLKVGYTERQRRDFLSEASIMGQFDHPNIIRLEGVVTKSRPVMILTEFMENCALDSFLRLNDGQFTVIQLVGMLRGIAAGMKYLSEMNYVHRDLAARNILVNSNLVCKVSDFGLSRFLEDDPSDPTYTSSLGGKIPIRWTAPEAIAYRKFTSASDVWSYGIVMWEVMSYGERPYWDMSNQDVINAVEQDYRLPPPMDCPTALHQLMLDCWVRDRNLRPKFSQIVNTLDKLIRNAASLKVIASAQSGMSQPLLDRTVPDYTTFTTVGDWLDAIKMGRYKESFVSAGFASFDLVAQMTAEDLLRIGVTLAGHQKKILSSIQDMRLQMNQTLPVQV

[13] = molecular target: T3, Ephrin type-B receptor 3 (Homo sapiens); details: at 1 µM
[14] = molecular target: T4, Ephrin type-B receptor 4 (Homo sapiens) (UniProt P54760); details: at 0.1 µM
T4 sequence (whole entry): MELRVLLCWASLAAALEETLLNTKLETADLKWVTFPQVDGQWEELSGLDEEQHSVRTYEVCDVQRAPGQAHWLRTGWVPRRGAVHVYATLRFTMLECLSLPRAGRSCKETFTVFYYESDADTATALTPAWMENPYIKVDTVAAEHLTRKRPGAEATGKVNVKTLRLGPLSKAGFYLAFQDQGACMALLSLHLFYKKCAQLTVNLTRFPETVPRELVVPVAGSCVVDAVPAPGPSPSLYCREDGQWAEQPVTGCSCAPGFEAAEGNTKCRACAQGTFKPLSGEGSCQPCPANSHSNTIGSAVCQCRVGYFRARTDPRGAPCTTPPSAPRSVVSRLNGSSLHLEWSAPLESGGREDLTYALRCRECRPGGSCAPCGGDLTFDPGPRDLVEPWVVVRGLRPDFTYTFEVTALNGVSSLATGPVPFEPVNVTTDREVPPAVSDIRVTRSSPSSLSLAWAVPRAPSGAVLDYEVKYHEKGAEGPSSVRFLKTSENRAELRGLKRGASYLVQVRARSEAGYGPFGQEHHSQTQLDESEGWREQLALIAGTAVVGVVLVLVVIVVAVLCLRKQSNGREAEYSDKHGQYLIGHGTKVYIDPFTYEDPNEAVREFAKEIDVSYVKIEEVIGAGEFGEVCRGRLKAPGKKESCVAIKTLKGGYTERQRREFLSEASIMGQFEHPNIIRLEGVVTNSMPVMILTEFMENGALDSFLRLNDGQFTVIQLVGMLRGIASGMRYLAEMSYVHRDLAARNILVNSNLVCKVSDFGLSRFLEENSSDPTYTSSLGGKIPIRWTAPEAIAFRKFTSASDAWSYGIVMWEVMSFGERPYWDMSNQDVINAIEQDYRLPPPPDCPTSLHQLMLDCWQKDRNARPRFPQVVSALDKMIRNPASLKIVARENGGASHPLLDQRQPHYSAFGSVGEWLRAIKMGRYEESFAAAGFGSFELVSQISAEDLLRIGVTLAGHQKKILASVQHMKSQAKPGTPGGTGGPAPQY

[15] = molecular target: T4, Ephrin type-B receptor 4 (Homo sapiens); details: at 1 µM
[16] = molecular target: Receptor tyrosine-protein kinase erbB-2 (Homo sapiens) (UniProt P04626); details: at 0.1 µM
[17] = molecular target: Receptor tyrosine-protein kinase erbB-2 (Homo sapiens) (UniProt P04626); details: at 1 µM
[18] = molecular target: Receptor tyrosine-protein kinase erbB-4 (Homo sapiens) (UniProt Q15303); details: at 0.1 µM
[19] = molecular target: Receptor tyrosine-protein kinase erbB-4 (Homo sapiens) (UniProt Q15303); details: at 1 µM
[20] = molecular target: Tyrosine-protein kinase Fer (Homo sapiens) (UniProt P16591); details: at 0.1 µM;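 further: reported figures are averaged percent inhibition of FER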
UniProt P16591, sequence (P16591 whole entry, looked up): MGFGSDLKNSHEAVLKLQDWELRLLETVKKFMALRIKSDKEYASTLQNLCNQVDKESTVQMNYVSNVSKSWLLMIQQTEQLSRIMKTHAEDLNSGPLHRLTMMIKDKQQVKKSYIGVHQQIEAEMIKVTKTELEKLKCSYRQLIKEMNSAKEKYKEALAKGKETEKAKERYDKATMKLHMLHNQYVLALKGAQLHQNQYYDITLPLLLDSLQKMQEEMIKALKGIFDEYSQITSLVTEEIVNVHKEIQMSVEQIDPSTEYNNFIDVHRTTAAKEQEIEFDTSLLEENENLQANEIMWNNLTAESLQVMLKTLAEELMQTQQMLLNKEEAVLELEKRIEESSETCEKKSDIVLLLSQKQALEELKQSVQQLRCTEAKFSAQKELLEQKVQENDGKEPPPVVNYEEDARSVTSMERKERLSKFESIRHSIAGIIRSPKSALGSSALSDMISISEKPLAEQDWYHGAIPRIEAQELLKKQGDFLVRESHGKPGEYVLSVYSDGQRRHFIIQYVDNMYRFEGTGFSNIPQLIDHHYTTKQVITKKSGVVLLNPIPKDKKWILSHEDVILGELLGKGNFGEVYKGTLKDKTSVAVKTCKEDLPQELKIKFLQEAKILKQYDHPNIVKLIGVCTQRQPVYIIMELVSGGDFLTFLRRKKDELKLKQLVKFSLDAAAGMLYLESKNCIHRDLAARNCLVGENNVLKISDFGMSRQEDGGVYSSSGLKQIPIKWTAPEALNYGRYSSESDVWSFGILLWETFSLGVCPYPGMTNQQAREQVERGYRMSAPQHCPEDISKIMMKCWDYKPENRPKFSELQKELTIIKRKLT

UniProt P54764, sequence (P54764 whole entry): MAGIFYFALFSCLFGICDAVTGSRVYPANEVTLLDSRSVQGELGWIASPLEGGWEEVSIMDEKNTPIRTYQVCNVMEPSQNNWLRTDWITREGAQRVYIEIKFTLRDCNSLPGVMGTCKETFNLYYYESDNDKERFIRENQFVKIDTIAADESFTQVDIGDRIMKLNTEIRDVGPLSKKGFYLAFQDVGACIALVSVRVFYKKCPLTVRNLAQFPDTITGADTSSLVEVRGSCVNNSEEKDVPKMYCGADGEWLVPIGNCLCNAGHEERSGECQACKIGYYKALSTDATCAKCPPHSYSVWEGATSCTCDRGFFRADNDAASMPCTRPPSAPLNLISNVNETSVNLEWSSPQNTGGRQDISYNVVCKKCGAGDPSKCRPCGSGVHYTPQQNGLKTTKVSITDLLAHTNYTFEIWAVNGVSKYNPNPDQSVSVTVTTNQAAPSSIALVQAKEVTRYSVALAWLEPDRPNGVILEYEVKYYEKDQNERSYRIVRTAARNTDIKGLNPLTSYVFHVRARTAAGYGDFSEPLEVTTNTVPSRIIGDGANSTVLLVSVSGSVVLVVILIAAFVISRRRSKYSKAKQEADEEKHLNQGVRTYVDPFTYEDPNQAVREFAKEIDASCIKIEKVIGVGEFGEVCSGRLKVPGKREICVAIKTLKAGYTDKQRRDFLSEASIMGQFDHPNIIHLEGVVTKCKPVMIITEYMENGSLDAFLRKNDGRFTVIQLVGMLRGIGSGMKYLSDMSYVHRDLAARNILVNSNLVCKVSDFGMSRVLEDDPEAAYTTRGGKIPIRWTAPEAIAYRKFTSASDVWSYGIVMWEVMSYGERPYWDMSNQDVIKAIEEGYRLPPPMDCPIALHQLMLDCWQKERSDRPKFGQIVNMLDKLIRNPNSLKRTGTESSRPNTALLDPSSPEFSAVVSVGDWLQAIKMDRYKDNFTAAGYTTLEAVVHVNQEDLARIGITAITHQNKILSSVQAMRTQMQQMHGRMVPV
UniProt Q15303, sequence (Q15303 whole entry): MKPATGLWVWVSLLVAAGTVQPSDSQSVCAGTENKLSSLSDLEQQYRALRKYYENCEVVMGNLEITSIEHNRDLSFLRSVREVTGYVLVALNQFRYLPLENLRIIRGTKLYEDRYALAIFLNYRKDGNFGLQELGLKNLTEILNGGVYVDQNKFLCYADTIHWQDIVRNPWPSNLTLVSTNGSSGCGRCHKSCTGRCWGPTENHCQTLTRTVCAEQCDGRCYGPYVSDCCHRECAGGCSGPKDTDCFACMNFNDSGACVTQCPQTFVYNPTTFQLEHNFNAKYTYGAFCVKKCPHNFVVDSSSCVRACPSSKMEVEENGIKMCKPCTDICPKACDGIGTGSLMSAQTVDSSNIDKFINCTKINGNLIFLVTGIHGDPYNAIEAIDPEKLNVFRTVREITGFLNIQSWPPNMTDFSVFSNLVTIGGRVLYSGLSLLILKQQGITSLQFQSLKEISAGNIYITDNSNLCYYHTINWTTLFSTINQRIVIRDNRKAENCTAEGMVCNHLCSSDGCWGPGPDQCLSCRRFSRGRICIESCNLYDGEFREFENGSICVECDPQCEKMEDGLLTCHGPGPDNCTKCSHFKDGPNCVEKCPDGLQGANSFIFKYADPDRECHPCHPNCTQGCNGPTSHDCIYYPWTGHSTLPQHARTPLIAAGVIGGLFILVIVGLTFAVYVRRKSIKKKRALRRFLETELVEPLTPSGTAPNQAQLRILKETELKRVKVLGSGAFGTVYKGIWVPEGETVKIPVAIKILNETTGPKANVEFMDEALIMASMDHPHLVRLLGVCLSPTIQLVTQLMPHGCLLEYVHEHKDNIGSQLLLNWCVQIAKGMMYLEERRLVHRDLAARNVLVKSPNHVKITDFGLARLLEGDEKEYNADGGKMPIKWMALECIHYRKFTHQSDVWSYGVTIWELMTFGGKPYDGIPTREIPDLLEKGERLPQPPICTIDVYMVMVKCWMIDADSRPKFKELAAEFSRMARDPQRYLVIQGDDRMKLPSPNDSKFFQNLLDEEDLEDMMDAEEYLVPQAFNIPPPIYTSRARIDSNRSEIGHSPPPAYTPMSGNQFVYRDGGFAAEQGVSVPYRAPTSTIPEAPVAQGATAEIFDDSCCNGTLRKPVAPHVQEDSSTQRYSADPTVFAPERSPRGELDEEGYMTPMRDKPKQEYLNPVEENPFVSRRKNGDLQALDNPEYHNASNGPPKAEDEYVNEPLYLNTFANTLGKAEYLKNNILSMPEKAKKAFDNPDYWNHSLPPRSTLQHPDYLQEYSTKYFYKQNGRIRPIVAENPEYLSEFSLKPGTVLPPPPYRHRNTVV
UniProt P04626, sequence (P04626 whole entry): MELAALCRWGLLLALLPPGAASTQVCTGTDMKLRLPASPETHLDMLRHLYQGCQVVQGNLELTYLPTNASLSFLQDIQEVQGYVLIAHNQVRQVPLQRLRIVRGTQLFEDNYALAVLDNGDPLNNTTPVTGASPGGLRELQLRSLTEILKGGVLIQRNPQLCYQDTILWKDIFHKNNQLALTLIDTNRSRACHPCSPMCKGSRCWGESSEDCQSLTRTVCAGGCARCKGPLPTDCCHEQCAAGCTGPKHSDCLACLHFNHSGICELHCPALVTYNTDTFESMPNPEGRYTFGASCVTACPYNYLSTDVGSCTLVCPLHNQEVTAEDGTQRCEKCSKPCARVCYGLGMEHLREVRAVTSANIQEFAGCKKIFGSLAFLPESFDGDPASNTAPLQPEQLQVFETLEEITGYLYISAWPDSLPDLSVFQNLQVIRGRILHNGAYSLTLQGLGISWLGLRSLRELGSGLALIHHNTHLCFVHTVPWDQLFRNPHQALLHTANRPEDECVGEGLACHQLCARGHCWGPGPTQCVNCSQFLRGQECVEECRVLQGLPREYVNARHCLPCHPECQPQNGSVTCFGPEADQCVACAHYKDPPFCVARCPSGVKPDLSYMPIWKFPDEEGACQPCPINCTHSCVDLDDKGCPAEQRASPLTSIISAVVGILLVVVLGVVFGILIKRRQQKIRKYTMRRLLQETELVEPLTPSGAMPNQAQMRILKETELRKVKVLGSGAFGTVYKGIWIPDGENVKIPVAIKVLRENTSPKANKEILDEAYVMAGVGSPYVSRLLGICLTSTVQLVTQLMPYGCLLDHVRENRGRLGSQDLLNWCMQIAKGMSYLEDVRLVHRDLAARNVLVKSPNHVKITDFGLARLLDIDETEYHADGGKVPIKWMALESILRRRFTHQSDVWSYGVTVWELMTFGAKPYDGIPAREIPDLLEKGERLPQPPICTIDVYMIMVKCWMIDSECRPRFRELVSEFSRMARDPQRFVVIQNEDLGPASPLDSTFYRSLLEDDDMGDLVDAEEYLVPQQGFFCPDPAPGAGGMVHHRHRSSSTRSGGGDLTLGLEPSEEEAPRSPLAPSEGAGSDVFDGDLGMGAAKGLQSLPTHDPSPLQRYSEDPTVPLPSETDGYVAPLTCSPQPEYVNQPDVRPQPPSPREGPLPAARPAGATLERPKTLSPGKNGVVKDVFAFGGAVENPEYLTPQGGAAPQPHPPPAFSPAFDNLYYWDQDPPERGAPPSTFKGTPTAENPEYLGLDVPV

Row | SMILES | inhibition [1] [%] | inhibition [2] [%] | inhibition [3] [%] | inhibition [4] [%] | inhibition [5] [%] | inhibition [6] [%] | inhibition [7] [%] | inhibition [8] [%] | inhibition [9] [%] | inhibition [10] [%] | inhibition [11] [%] | inhibition [12] [%] | inhibition [13] [%] | inhibition [14] [%] | inhibition [15] [%] | inhibition [16] [%] | inhibition [17] [%] | inhibition [18] [%] | inhibition [19] [%] | inhibition [20] [%]
1 | O=C1NC(=O)C(c2ccccc2)=C1Nc1ccccc1 | 6.06 | 7.55 | 2.97 | 1.09 | 0.95 | 6.11 | 5.22 | 11.1 | 14.8 | 7.07 | 11.6 | 6.33 | 3.76 | 3.88 | 3.24 | 3.99 | 2.79 | 10.9 | 24 | 3.66
2 | Fc1ccc(-c2ncn(C3CCNCC3)c2-c2ccnc(Oc3cccc(F)c3)n2)cc1 | 2.06 | 4 | 5.17 | 0.84 | 0.25 | 4.48 | 6.01 | 7.86 | 12 | 8.19 | 15.4 | 4.21 | 4.97 | 1.93 | 3.09 | 3.49 | 4.09 | 5 | 11.2 | 6.81
3 | Fc1ccc(-c2ncn(C3CCNCC3)c2-c2ccnc(Oc3ccc(Cl)cc3)n2)cc1 | 0.38 | -1.44 | 1.67 | -3.79 | -2.87 | -2.51 | -1.43 | -0.62 | 2.11 | 5.34 | 3.26 | 1 | 2.14 | -0.37 | 1.29 | -0.24 | 5.43 | 6.98 | 9.2 | 3.95
4 | O=C(O)c1ccc(Oc2nccc(-c3c(-c4ccc(F)cc4)ncn3C3CCNCC3)n2)cc1 | 2.74 | -0.31 | 2.26 | 2.07 | 1.28 | 1.21 | 2.84 |  | 8.32 | 8.65 | 4.11 | 2.77 | 1.78 | 3.71 | 3.04 | 1.34 | 1.62 | 5.11 | 7.71 | -2.55
5 | Cc1cccc(Oc2nccc(-c3c(-c4ccc(F)cc4)ncn3C3CCNCC3)n2)c1C | 2.18 | 1.61 | 6.91 | 1.32 | 0.66 | 1.54 | 3 | 5.4 | 8.41 | 5.48 | 7.01 | 3.14 | 5.07 | 0.3 | 1.15 | 1.89 | 5.54 | 6.52 | 10.7 | 2.75
6 | COc1ccccc1C1=C(Nc2ccccc2)C(=O)NC1=O | 2.58 | 1.03 | 1.71 | 1.18 | 0.6 | 3.37 | 4.46 | 8.15 | 13.4 | 5.38 | 12.2 | 5.54 | 3.76 | 2.58 | 2.07 | 2.04 | 2.5 | 7.55 | 10.4 | 4.62
7 | CS(=O)(=O)c1ccc(Oc2nccc(-c3c(-c4ccc(F)cc4)ncn3C3CCNCC3)n2)cc1 | 3.13 | 2.94 | -1.42 | 1.96 | 0.6 | 2.49 | 2.77 | 7.19 | 10.1 | 6.94 | 8.79 | 4.01 | 4.79 | -0.15 | 2.72 | 3.64 | 5.1 | 8.15 | 12 | 2.29
